Data from paper PMC5691054, “An unexpected protein interaction promotes drug resistance in leukemia” (Nature Communications, 2017).
No constants are given. Whether binding was seen depends on the method and setting. Binding seen in cells or lysates may run through a third protein. Some results given as binding are weak or reduced against the parent protein; the word gives no strength. For some assays here: Where a sequence is shown, tags or fusion partners need not be part of it.

T1: MPP1, endogenous in MO7e cells (human (endogenous in MO7e)) (UniProt Q00013)
T1 sequence: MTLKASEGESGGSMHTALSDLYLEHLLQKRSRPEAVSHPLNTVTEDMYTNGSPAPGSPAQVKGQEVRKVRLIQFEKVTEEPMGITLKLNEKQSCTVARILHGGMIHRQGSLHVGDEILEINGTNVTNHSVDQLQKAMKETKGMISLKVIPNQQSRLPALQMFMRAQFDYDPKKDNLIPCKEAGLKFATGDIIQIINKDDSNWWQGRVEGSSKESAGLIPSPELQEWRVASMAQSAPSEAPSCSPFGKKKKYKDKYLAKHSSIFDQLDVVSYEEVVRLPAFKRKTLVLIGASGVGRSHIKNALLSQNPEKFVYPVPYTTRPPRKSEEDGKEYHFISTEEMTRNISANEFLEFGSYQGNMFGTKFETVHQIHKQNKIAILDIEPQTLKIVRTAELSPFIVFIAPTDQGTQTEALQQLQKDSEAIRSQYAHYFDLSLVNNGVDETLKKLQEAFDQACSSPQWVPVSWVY

T2: C-terminal domain of MPP1 containing both the SH3 and GUK domains (amino acids 161–466), GST-fusion protein (UniProt Q00013)
T2 sequence: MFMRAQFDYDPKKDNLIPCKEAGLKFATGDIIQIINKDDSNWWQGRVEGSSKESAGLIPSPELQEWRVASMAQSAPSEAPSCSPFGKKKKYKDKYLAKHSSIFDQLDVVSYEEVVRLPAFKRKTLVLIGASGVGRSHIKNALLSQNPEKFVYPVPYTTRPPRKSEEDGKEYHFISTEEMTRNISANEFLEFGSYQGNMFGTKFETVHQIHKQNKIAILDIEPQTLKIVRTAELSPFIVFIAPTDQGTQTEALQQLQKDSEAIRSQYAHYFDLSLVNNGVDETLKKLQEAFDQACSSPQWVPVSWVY

T3: His-S-MPP1 fusion protein (full-length MPP1) (UniProt Q00013)
T3 sequence: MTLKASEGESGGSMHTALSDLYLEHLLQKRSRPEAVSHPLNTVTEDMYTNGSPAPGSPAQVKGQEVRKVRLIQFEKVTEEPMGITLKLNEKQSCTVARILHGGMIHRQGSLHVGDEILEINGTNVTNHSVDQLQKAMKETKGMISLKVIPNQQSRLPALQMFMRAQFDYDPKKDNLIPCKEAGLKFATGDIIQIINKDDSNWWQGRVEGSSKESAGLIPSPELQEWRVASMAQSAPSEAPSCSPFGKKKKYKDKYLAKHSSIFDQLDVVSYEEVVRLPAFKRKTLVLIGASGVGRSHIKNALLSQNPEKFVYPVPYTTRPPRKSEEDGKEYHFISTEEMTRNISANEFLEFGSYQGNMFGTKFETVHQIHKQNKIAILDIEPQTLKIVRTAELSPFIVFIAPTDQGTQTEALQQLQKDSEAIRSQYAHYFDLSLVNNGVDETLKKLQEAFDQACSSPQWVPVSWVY

T4: N-terminal domain of MPP1 (amino acids 1–83), GST-fusion protein (UniProt Q00013)
T4 sequence: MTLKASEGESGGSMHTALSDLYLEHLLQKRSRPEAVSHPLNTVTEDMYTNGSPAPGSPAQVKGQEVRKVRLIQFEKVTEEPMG

T5: PDZ domain of MPP1 (amino acids 83–160), GST-fusion protein (UniProt Q00013)
T5 sequence: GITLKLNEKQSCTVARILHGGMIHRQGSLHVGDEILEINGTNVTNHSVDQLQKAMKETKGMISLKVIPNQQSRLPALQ

T6: Human ABCC4 with an amino terminal Ac-GFP fusion protein (human) (UniProt O15439)
T6 sequence: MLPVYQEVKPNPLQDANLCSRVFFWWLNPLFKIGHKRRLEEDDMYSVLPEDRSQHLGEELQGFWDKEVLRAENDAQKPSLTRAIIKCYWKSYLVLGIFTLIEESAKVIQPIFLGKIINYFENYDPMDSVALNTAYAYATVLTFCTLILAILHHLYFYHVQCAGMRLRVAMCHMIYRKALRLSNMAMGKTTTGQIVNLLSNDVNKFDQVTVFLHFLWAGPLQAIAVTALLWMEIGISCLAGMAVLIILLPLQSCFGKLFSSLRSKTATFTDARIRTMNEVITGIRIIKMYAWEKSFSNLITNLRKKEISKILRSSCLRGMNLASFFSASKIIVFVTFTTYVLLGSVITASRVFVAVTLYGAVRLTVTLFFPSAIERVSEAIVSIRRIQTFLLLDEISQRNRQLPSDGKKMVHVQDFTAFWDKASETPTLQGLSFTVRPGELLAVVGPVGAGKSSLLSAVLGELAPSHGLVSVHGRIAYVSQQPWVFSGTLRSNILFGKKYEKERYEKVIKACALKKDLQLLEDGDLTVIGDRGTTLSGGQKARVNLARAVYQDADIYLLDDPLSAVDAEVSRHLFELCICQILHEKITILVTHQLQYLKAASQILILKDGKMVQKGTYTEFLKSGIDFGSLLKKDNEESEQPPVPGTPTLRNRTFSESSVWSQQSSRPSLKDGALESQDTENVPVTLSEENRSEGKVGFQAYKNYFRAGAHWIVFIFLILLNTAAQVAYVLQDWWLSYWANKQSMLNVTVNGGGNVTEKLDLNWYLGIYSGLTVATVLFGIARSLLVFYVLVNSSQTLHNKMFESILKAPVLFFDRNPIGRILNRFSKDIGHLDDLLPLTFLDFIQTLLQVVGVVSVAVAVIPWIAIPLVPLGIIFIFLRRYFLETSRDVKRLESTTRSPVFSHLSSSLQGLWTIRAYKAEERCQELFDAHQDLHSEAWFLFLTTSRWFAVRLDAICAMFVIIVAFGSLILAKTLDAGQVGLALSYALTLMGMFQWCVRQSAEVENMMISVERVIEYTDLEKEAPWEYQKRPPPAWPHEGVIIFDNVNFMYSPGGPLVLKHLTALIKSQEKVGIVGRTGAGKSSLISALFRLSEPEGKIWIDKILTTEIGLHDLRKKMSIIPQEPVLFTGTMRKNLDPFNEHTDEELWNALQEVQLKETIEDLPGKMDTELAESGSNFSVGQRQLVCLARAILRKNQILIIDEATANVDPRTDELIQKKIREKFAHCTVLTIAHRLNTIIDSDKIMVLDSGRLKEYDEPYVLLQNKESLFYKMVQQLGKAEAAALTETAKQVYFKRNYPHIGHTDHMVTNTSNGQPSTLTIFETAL

B1: ABCC4, endogenous in MO7e cells (natural protein, human (endogenous in MO7e), UniProt O15439 1-1325, looked up)
chain: MLPVYQEVKPNPLQDANLCSRVFFWWLNPLFKIGHKRRLEEDDMYSVLPEDRSQHLGEELQGFWDKEVLRAENDAQKPSLTRAIIKCYWKSYLVLGIFTLIEESAKVIQPIFLGKIINYFENYDPMDSVALNTAYAYATVLTFCTLILAILHHLYFYHVQCAGMRLRVAMCHMIYRKALRLSNMAMGKTTTGQIVNLLSNDVNKFDQVTVFLHFLWAGPLQAIAVTALLWMEIGISCLAGMAVLIILLPLQSCFGKLFSSLRSKTATFTDARIRTMNEVITGIRIIKMYAWEKSFSNLITNLRKKEISKILRSSCLRGMNLASFFSASKIIVFVTFTTYVLLGSVITASRVFVAVTLYGAVRLTVTLFFPSAIERVSEAIVSIRRIQTFLLLDEISQRNRQLPSDGKKMVHVQDFTAFWDKASETPTLQGLSFTVRPGELLAVVGPVGAGKSSLLSAVLGELAPSHGLVSVHGRIAYVSQQPWVFSGTLRSNILFGKKYEKERYEKVIKACALKKDLQLLEDGDLTVIGDRGTTLSGGQKARVNLARAVYQDADIYLLDDPLSAVDAEVSRHLFELCICQILHEKITILVTHQLQYLKAASQILILKDGKMVQKGTYTEFLKSGIDFGSLLKKDNEESEQPPVPGTPTLRNRTFSESSVWSQQSSRPSLKDGALESQDTENVPVTLSEENRSEGKVGFQAYKNYFRAGAHWIVFIFLILLNTAAQVAYVLQDWWLSYWANKQSMLNVTVNGGGNVTEKLDLNWYLGIYSGLTVATVLFGIARSLLVFYVLVNSSQTLHNKMFESILKAPVLFFDRNPIGRILNRFSKDIGHLDDLLPLTFLDFIQTLLQVVGVVSVAVAVIPWIAIPLVPLGIIFIFLRRYFLETSRDVKRLESTTRSPVFSHLSSSLQGLWTIRAYKAEERCQELFDAHQDLHSEAWFLFLTTSRWFAVRLDAICAMFVIIVAFGSLILAKTLDAGQVGLALSYALTLMGMFQWCVRQSAEVENMMISVERVIEYTDLEKEAPWEYQKRPPPAWPHEGVIIFDNVNFMYSPGGPLVLKHLTALIKSQEKVGIVGRTGAGKSSLISALFRLSEPEGKIWIDKILTTEIGLHDLRKKMSIIPQEPVLFTGTMRKNLDPFNEHTDEELWNALQEVQLKETIEDLPGKMDTELAESGSNFSVGQRQLVCLARAILRKNQILIIDEATANVDPRTDELIQKKIREKFAHCTVLTIAHRLNTIIDSDKIMVLDSGRLKEYDEPYVLLQNKESLFYKMVQQLGKAEAAALTETAKQVYFKRNYPHIGHTDHMVTNTSNGQPSTLTIFETAL
B2: MPP1 expressed from an expression vector in HEK293 cells (protein, UniProt Q00013 1-466)
chain: MTLKASEGESGGSMHTALSDLYLEHLLQKRSRPEAVSHPLNTVTEDMYTNGSPAPGSPAQVKGQEVRKVRLIQFEKVTEEPMGITLKLNEKQSCTVARILHGGMIHRQGSLHVGDEILEINGTNVTNHSVDQLQKAMKETKGMISLKVIPNQQSRLPALQMFMRAQFDYDPKKDNLIPCKEAGLKFATGDIIQIINKDDSNWWQGRVEGSSKESAGLIPSPELQEWRVASMAQSAPSEAPSCSPFGKKKKYKDKYLAKHSSIFDQLDVVSYEEVVRLPAFKRKTLVLIGASGVGRSHIKNALLSQNPEKFVYPVPYTTRPPRKSEEDGKEYHFISTEEMTRNISANEFLEFGSYQGNMFGTKFETVHQIHKQNKIAILDIEPQTLKIVRTAELSPFIVFIAPTDQGTQTEALQQLQKDSEAIRSQYAHYFDLSLVNNGVDETLKKLQEAFDQACSSPQWVPVSWVY

Experiments:
[1] = target: T1, MPP1, endogenous in MO7e cells (human (endogenous in MO7e)); test: proximity ligation; endogenous proteins in the AML cell line MO7e
[2] = target: T1, MPP1, endogenous in MO7e cells (human (endogenous in MO7e)); test: co-IP; endogenous proteins in MO7e lysate (MPER lysis buffer); antibodies 4 h at 4 °C, protein G-agarose; immunoblot
[3] = target: T2, C-terminal domain of MPP1 containing both the SH3 and GUK domains (amino acids 161–466), GST-fusion protein; test: co-IP; purified MPP1 or purified MPP1 fragments incubated with MO7e lysates, immunoprecipitation, blot with an antibody against ABCC4; only the target purified
[4] = target: T3, His-S-MPP1 fusion protein (full-length MPP1); test: as above
[5] = target: T4, N-terminal domain of MPP1 (amino acids 1–83), GST-fusion protein; test: as above
[6] = target: T5, PDZ domain of MPP1 (amino acids 83–160), GST-fusion protein; test: as above
[7] = target: T6, Human ABCC4 with an amino terminal Ac-GFP fusion protein (human); test: co-IP; cells co-transfected with MPP1 and GFP-ABCC4 or GFP-ABCC4ΔC; immunoprecipitation with GFP-TRAP; blot with anti-MPP1
[8] = target: T6, Human ABCC4 with an amino terminal Ac-GFP fusion protein (human); test: proximity ligation; HEK293 cells transfected with ABCC4 or ABCC4ΔC and MPP1, fixed and permeabilized; anti-ABCC4 and anti-MPP1 antibodies, Duolink kit

Binder	binding [1]	binding [2]	binding [3]	binding [4]	binding [5]	binding [6]	binding [7]	binding [8]
B1	binds	binds	no binding	binds	no binding	binds		
B2							binds	binds
